The target in experiment [1] is T1, purified mutant MGL (mut-MGLL 11-313 L179S L186S) (Homo sapiens, UniProt Q99685, L169S/L176S).
T1 sequence (Q99685 1-303 L169S/L176S): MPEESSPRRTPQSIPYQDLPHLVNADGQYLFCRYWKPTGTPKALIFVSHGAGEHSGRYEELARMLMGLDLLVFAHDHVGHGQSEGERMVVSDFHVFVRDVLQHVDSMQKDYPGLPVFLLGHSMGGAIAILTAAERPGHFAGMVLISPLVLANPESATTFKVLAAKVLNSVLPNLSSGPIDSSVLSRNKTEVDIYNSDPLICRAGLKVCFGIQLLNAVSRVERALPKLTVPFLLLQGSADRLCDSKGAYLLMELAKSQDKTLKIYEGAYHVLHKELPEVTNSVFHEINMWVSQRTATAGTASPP
The note with it: read-out: Ex. 4 Kd; ThermoFluor, mutant MGL. On the technique in general: Differential scanning fluorimetry follows unfolding on heating by fluorescence.

Experiment [2] has as its target T1, purified mutant MGL (mut-MGLL 11-313 L179S L186S). The note with it: read-out: Ex. 3 (mutant) IC50; mutant MGL; substrate 4MU-B.
For experiment [3] the target is unchanged. The experiment is described as follows: biochemical. Particulars: Ex. 4 Kd, ThermoFluor.
Experiment [4] has the same target. The experiment is described as follows: biochemical. The note with it: Ex. 3 (mutant) IC50, mutant MGL (mut-MGLL 11-313 L179S L186S).

pIC50, pKd: −log10 of the molar value. Like-named read-outs stand apart in the source and are kept apart here.

This passage reports Kd and IC50 results from patent US20130184251A1, “HETEROAROMATIC AND AROMATIC PIPERAZINYL AZETIDINYL AMIDES AS MONOACYLGLYCEROL LIPASE INHIBITORS” (Janssen Pharmaceutica, NV, priority 2009, published 2013).

By pKd is commonly meant −log10 of the Kd, conventionally taken in molar units. `O=C(c1ccccc1)c1ccccc1C(=O)N1CC(N2CCN(c3ccccn3)CC2)C1` [Compound #201]: the pKd in experiment [1] is less than 4.12.

By pIC50 is commonly meant the IC50 on a negative log10 scale, so that one unit is a factor of ten. As to `O=C(c1ccc(C2CCCCC2)cc1)N1CC(N2CCN(c3ccc(C(F)(F)F)cn3)CC2)C1` [Compound #202], in experiment [1], the pKd is 4.60. Moreover, the pIC50 in experiment [2] was less than 4.82.

For `O=C(Nc1cccc(C(=O)N2CC(N3CCN(c4ccccn4)CC3)C2)c1)C1CCCCC1` [Compound #203], the pKd in experiment [1] is 4.51. The pIC50 in experiment [2] was less than 4.82.

As to `O=C(C=Cc1ccc(SC(F)(F)F)cc1)N1CC(N2CCCN(c3ncccn3)CC2)C1` [Compound #206], the negative logarithm of the Kd (pKd) in experiment [1] was 4.90. In experiment [2], the pIC50 is less than 4.78.

Take `COc1ccc(-c2nc3cccc(C(=O)N4CC(N5CCN(c6ccccn6)CC5)C4)c3o2)cc1` [Compound #210]: the pKd in experiment [1] was 7.08.

`Cc1ccc(-c2cc3cc(C(=O)N4CC(N5CCN(c6ccccn6)CC5)C4)ccc3n2CC(C)C)cc1` [Compound #215]: in experiment [2], the pIC50 was 7.22.

`O=C(c1ccc(-c2ccccc2)cc1)N1CC(N2CCN(c3ccccc3[N+](=O)[O-])CC2)C1` [compound 105, 1-[1-(Biphenyl-4-ylcarbonyl)azetidin-3-yl]-4-(2-nitrophenyl)piperazine] had a negative logarithm of the Kd (pKd) in experiment [3] of less than 4.12. This compound gave a pIC50 in experiment [4] of 4.94.

The compound `O=C(c1ccc(-c2ccccc2)cc1)N1CC(N2CCN(c3nc4ccccc4s3)CC2)C1` [compound 106, 2-(4-[1-(Biphenyl-4-ylcarbonyl)azetidin-3-yl]piperazin-1-yl}-1,3-benzothiazole] gave a pKd in experiment [3] of 4.90. In addition, the pIC50 in experiment [4] is 4.90.

`O=C(c1cnn(-c2ccccc2)c1)N1CC(N2CCN(c3ccccn3)CC2)C1` [compound 107, 1-{1-[(1-Phenyl-1H-pyrazol-4-yl)carbonyl]azetidin-3-yl}-4-pyridin-2-ylpiperazine] had a pKd in experiment [3] of 4.94. The compound further showed a negative logarithm of the IC50 (pIC50) in experiment [4] of 4.89.

With `O=C(c1nc(-c2ccccc2)oc1C(F)(F)F)N1CC(N2CCN(c3ccccn3)CC2)C1` [compound 108, 1-(1-{[2-Phenyl-5-(trifluoromethyl)-1,3-oxazol-4-yl]carbonyl}azetidin-3-yl)-4-pyridin-2-ylpiperazine], the pKd in experiment [3] is 4.60. The compound also gave a pIC50 in experiment [4] of 4.88.

With `O=C(Cc1cccc(Oc2ccccc2)c1)N1CC(N2CCN(c3ccccn3)CC2)C1` [compound 109, 1-{1-[(3-Phenoxyphenyl)acetyl]azetidin-3-yl}-4-pyridin-2-ylpiperazine], the pKd in experiment [3] is 4.49. In experiment [4], this compound had a pIC50 of 4.87.

`O=C(c1ccc(OCc2ccccc2)cc1)N1CC(N2CCN(c3ncccn3)CC2)C1` [compound 111, 2-[4-(1-{[4-(Benzyloxy)phenyl]carbonyl}azetidin-3-yl)piperazin-1-yl]pyrimidine] had a pKd in experiment [3] of 7.85. In experiment [4], the negative-log IC50 (pIC50) is more than 7.89.

In experiment [3], `O=C(c1ccc(OCc2ccccc2)cc1)N1CC(N2CCN(c3ccccn3)CC2)C1` [compound 112, 1-(1-{[4-(Benzyloxy)phenyl]carbonyl}azetidin-3-yl)-4-pyridin-2-ylpiperazine] gave a pKd of 6.92. In addition, the pIC50 in experiment [4] was 7.62.

On to `CCOc1cccc(/C=C/C(=O)N2CC(N3CCN(c4ccccn4)CC3)C2)c1` [compound 113, 1-{1-[(2E)-3-(3-Ethoxyphenyl)prop-2-enoyl]azetidin-3-yl}-4-pyridin-2-ylpiperazine], for which the pKd in experiment [3] was 5.40. Besides, in experiment [4], the pIC50 was 5.15.

`O=C(c1ccc(Cc2ccccc2)cc1)N1CC(N2CCN(c3ncccc3I)CC2)C1` [compound 114, 1-{1-[(4-Benzylphenyl)carbonyl]azetidin-3-yl}-4-(3-iodopyridin-2-yl)piperazine] showed a pKd in experiment [3] of 5.00. In experiment [4], this compound showed a pIC50 of 5.10.

With `O=C(c1ccc2ncccc2c1)N1CC(N2CCN(c3ccccn3)CC2)C1` [compound 115, 6-{[3-(4-Pyridin-2-ylpiperazin-1-yl)azetidin-1-yl]carbonyl}quinoline], the pKd in experiment [3] was 5.18. For the same compound, the pIC50 in experiment [4] is 5.09.

In experiment [3], `O=C(c1ccc2ccccc2n1)N1CC(N2CCN(c3ccccn3)CC2)C1` [compound 116, 2-{[3-(4-Pyridin-2-ylpiperazin-1-yl)azetidin-1-yl]carbonyl}quinoline] had a pKd of 5.16. In addition, in experiment [4], the pIC50 was 5.06.

For `Cc1c(C(=O)N2CC(N3CCN(c4ccccn4)CC3)C2)oc2ccccc12` [compound 117, 1-{1-[(3-Methyl-1-benzofuran-2-yl)carbonyl]azetidin-3-yl}-4-pyridin-2-ylpiperazine], the pKd in experiment [3] is 4.74. For the same compound, the negative logarithm of the IC50 (pIC50) in experiment [4] was 4.97.

In experiment [3], `O=C(c1ccc(OCc2ccccc2)cc1)N1CC(N2CCN(c3ncccc3I)CC2)C1` [compound 118, 1-(1-{[4-(Benzyloxy)phenyl]carbonyl}azetidin-3-yl)-4-(3-iodopyridin-2-yl)piperazine] showed a pKd of less than 4.12. The same compound gave a pIC50 in experiment [4] of 5.63.

On to `CCCCc1ccc(C(=O)N2CC(N3CCN(c4ccccn4)CC3)C2)nc1` [compound 119, 1-{1-[(5-Butylpyridin-2-yl)carbonyl]azetidin-3-yl}-4-pyridin-2-ylpiperazine], for which the pKd in experiment [3] is 5.35. The same compound showed a pIC50 in experiment [4] of 5.63.

For `O=C(c1cc2c(OCc3ccccc3)cccc2[nH]1)N1CC(N2CCN(c3ccccn3)CC2)C1` [compound 120, 4-(Benzyloxy)-2-{[3-(4-pyridin-2-ylpiperazin-1-yl)azetidin-1-yl]carbonyl}-1H-indole], in experiment [3], the pKd is 5.53. This compound also gave a pIC50 in experiment [4] of 5.56.

In experiment [3], `O=C(c1ccc2[nH]ccc2c1)N1CC(N2CCN(c3ccccn3)CC2)C1` [compound 121, 5-{[3-(4-Pyridin-2-ylpiperazin-1-yl)azetidin-1-yl]carbonyl}-1H-indole] had a pKd of 5.60. The same compound had a pIC50 in experiment [4] of 5.51.

As for `CC(C)(C)OC(=O)N1CCC(c2ccc(C(=O)N3CC(N4CCN(c5ccccn5)CC4)C3)cc2)CC1` [compound 122, tert-Butyl 4-(4-{[3-(4-pyridin-2-ylpiperazin-1-yl)azetidin-1-yl]carbonyl}phenyl)piperidine-1-carboxylate], in experiment [3], the pKd is 6.38. In addition, the pIC50 in experiment [4] was 6.88.

Regarding `O=C(c1ccc(C#Cc2ccccc2)o1)N1CC(N2CCN(c3ccccn3)CC2)C1` [compound 123, 1-(1-{[5-(Phenylethynyl)furan-2-yl]carbonyl}azetidin-3-yl)-4-pyridin-2-ylpiperazine], the pKd in experiment [3] is 5.49. For the same compound, the pIC50 in experiment [4] was 5.46.

Take `O=C(C1CCc2ccccc2C1)N1CC(N2CCN(c3ccccn3)CC2)C1` (stereo not shown) [compound 125, 1-Pyridin-2-yl-4-[1-(1,2,3,4-tetrahydronaphth-2-ylcarbonyl)azetidin-3-yl]piperazine]: the pKd in experiment [3] is 5.15. Also, in experiment [4], the negative logarithm of the IC50 (pIC50) is 4.97.

`C[C@@H](C(=O)N1CC(N2CCN(c3ccccn3)CC2)C1)c1ccc(-c2ccccc2)c(F)c1` [compound 126, 1-{1-[(2R)-2-(2-Fluorobiphenyl-4-yl)propanoyl]azetidin-3-yl}-4-pyridin-2-ylpiperazine] showed a pKd in experiment [3] of less than 4.12. Moreover, the pIC50 in experiment [4] was 4.88.

`O=C(c1ccc2c(=O)c3ccccc3oc2c1)N1CC(N2CCN(c3ccccn3)CC2)C1` [compound 130, 3-{[3-(4-Pyridin-2-ylpiperazin-1-yl)azetidin-1-yl]carbonyl}-9H-xanthen-9-one] showed a pKd in experiment [3] of 6.04. The compound also showed a pIC50 in experiment [4] of 6.19.

In the case of `O=C(c1ccc(Cc2ccccc2)cc1)N1CCN(C2CN(c3ncccn3)C2)CC1` [compound 131, 2-(3-(4-[(4-Benzylphenyl)carbonyl]piperazin-1-yl}azetidin-1-yl)pyrimidine], in experiment [3], the pKd is 6.47. Also, the pIC50 in experiment [4] is 6.20.

`O=C(c1ccc2c(c1)CCCN2c1ccccc1)N1CC(N2CCN(c3ccccc3)CC2)C1` [compound 132, 1-Phenyl-6-{[3-(4-phenylpiperazin-1-yl)azetidin-1-yl]carbonyl}-1,2,3,4-tetrahydroquinoline] showed a pKd in experiment [3] of 5.22. Besides, in experiment [4], the pIC50 was 5.91.

Take `O=C(c1ccc2c(c1)CCCN2)N1CC(N2CCN(c3ccc(C(F)(F)F)cc3)CC2)C1` [compound 133, 6-[(3-{4-[4-(Trifluoromethyl)phenyl]piperazin-1-yl}azetidin-1-yl)carbonyl]-1,2,3,4-tetrahydroquinoline]: the pKd in experiment [3] was 4.82. The same compound gave a pIC50 in experiment [4] of 6.07.

Compound `O=C(c1ccc2c(c1)CCCN2c1ccc(C(F)(F)F)cc1)N1CC(N2CCN(c3ccc(C(F)(F)F)cc3)CC2)C1` [compound 134, 1-[4-(Trifluoromethyl)phenyl]-6-[(3-(4-[4-(trifluoromethyl)phenyl]piperazin-1-yl}azetidin-1-yl)carbonyl]-1,2,3,4-tetrahydroquinoline] had a pKd in experiment [3] of less than 4.51. The pIC50 in experiment [4] is 5.37.

`O=C(c1ccc2c(c1)CCCN2c1cccc(C(F)(F)F)c1)N1CC(N2CCN(c3cccc(C(F)(F)F)c3)CC2)C1` [compound 135, 1-[3-(Trifluoromethyl)phenyl]-6-[(3-(4-[3-(trifluoromethyl)phenyl]piperazin-1-yl}azetidin-1-yl)carbonyl]-1,2,3,4-tetrahydroquinoline]: the pKd in experiment [3] was less than 4.51. The compound also showed a pIC50 in experiment [4] of 4.97.
